# In the supplement of paper PMC10126150:
# Values marked as one replicate rest on one cluster of the flow cell; about a third of the high ones do not repeat.
# Test system: ATP
# Assay: switch fluorescence ratio, 500 uM ATP over buffer (Cy3 cluster intensity, sum of 5 cycles each) (fold (ratio)); higher = stronger signal-on switching upon ATP binding; sequences stand for … in TCGTCGGCAGCGTCAGATGTGTATAAGAGACAGTTTTTTTTTTTTTTTTTTTTTTTTT…TC
# Details: aptamer strand: ATP DNA aptamer (quencher-CACCTGGGGGAGTATTGCGGAGGAAGG + anchor), 100 nM annealed; ATP concentration: 500 uM; one replicate
# Procedure, shortened: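 Imaging in selection buffer was followed by imaging after 15 min with 500 uM ATP at 22 °C, for Cy3-labelled switching-strand clusters annealed to 100 nM quencher-labelled ATP aptamer on a modified Illumina MiSeq flow-cell. Five of these buffer/ATP cycles ran, separated by NaOH stripping and re-annealing. The fluorescence ratio per cluster is summed target-cycle over summed buffer-cycle Cy3 intensity, averaged per switch-domain sequence; clusters outside 100-1000 RFU were removed.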
# 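Note: ATP exposure 15 min at 22 °C before imaging.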
row,Sequence,switch fluorescence ratio
1,TTCAGGTCGA,1.05
2,TAGCGATCCA,1.01
3,ACAGACTAGA,1.08
4,GTAGAGATTG,0.975
5,ATAGAGCCGC,0.957
6,TATTTCCTG,0.975
7,CAGCCATAAA,0.976
8,TTCGAAGAGG,0.992
9,CCCGGTCATA,1.03
10,CGAATCCTTA,1.01
11,CGTTAGTTTG,1.02
12,TTGCATGGCG,1.05
13,GATCCACGTT,1.03
14,TCGTGCGGAA,1.25
15,TAGAACGAGC,1.07
16,ATTACCTAAA,1.02
17,CGACAAAGCG,1.01
18,TACTGGTAGT,1.03
19,AACGGGTCG,0.97
20,GAACCCGCCC,1.38
21,AGGATATCGG,1.03
22,TTCAGTGTGA,1.02
23,CGGCGCTAGA,1.07
24,GATATATAAA,0.95
25,CCAGCCCATA,1.12
26,CTTGATGAAG,0.986

row,Sequence,switch fluorescence ratio
1,AACGCTCTGG,0.97
2,GGGCCCCGCG,0.983
3,AGCAGGCTAC,1.26
4,ACTATGGCT,0.984
5,CGCAGAAAAA,1.04
6,GGCTGCTGGG,0.945
7,GACTAGCAGG,1.03
8,CAAGGCTACT,0.986
9,TCAGCGCTGG,0.986
10,GTGATGTAGG,0.936
11,TTACATCCTT,1.02
12,TTTATCAGCA,0.963
13,CAGTGGCCAG,1.03
14,TTTACACT,1.04
15,TGTTCGCTTA,1.04
16,CGACCATTCT,1.14
17,TTAGTGCCCG,1.04
18,GAATGTGTG,0.95
19,CATATAGGTC,1.03
20,AGGCCTAAAA,1.01
21,TTTAGATTG,0.954
22,GAATATATTC,0.985
23,GAATCTATTA,1.01
24,ATTCCGTTAG,1.03
25,TGGGCAACCC,1.17
26,AGAAGCTTGG,0.978

row,Sequence,switch fluorescence ratio
1,TTATTGTAG,1.01
2,GCGAGTAATT,1
3,TGACCTCTC,1.27
4,CTTGCTAGTC,1.01
5,CGATTGTGTT,0.973
6,CAGTGAGTTG,1.01
7,ATCAAAAT,1.04
8,CAGGGGCGCC,1.02
9,AAAAGCTCCT,1.12
10,TTGCTGGTCC,1.02
11,AAGAATTGCA,0.977
12,ATGCAACTAA,1.06
13,CAGGACACAC,1.37
14,CTTACTAGGA,0.999
15,TCTATGGGTT,1.02
16,AAACTCTTGA,0.989
17,TTACGGGTAC,1.07
18,CGGGGCGCAA,2
19,CTCCTCATCC,2.31
20,AGGCTGTATC,1.06
21,CATAATAGTT,1
22,AAGGCGTCCC,1.01
23,CGGGCACAA,1.1
24,TGAAGTATAT,1.12
25,AGGGGCAGC,1.06
26,ATATGTGCAG,0.926

row,Sequence,switch fluorescence ratio
1,AGACTTTTTT,1.09
2,CAGGGCTGGG,1.01
3,GATAGTATCG,0.953
4,GGGGGGGAA,1.03
5,AAGGCACGCA,0.993
6,CACTGTCTCA,1.04
7,TCCGATCGGA,0.967
8,CTATTGATGA,0.958
9,GCCTTTAGGT,1.04
10,TTACCGTAAT,1.22
11,ACCCAGTGAC,1.64
12,TGCAACCCGC,1.03
13,AGTAGTGCTA,0.99
14,AGTTTGTCGA,0.98
15,CGGCCGTGGC,1.01
16,AGTCCTATTC,1.04
17,CCTAGATAGC,1.09
18,AAGTGTACCT,1.11
19,GGATTCCATA,1.03
20,CGCCAAAATT,0.986
21,AGAACGGGAA,1.02
22,ACCGTCCATA,1.07
23,TGAACTTGCA,0.992
24,TGCCGCCGGA,1.04
25,TCGCGATCG,1.11
26,TAGGGATTGA,0.998

row,Sequence,switch fluorescence ratio
1,ACAAGCCGGA,1.02
2,CGGGCACGTA,1.02
3,GAGGGAGTCC,0.939
4,AAAATATATG,0.987
5,GTGATGTCGG,1.05
6,AGTCCCGCTC,1.24
7,AAGTTCGGAA,0.973
8,TTATGGATG,1
9,CGTACCGGGC,1.04
10,TACCCTCTT,0.985
11,ATCTATGAGA,1.02
12,AACTTCTACC,1.14
13,GGGCCGTCAT,1.01
14,CGTAATGGAA,0.998
15,AAATAGACCA,0.993
16,GACCAAATGG,1.09
17,ACCCATACAG,1.07
18,TTTGGCTGGT,1.08
19,TGAACGTAAC,1.45
20,CCGTTTTTAA,1.05
21,ACTCGGTACC,1.04
22,TCGCCTTCTG,1.05
23,GACCTCTTAT,0.997
24,CTCCTGCGTA,2.21
25,AATAAGCGC,1.03
26,TGTTTCGTCC,1.03

row,Sequence,switch fluorescence ratio
1,ACATGTATCA,0.998
2,GCGCTATAGT,1.63
3,TGCAGTGCAG,0.969
4,CACCCAGGAA,2.15
5,CGGGTTGGAG,1.01
6,GAAGCTAAAT,1.08
7,GAGATGTAGC,0.944
8,TGATATCGGG,0.977
9,CTTATGCTCA,0.996
10,CGGGGATCTG,1.01
11,TAAACGATAT,1.04
12,CTTGATTAAC,1.08
13,GCCGAGTAG,0.981
14,ACATCGTGCT,1.02
15,GGGGAGAGCC,0.989
16,TGCAATGTCG,1.16
17,CATGTGACTC,0.991
18,CCTTACTCTT,1.41
19,TCGGATCGGC,1.02
20,TATTATAAAC,1.14
21,GGCGACCTT,1.12
22,GTCAAAGTTG,1.15
23,ACACTAAATC,1.07
24,TGCGAATCGA,0.939
25,ATCCTCGGTC,1.08
26,TGTTTCCAAT,1.02

row,Sequence,switch fluorescence ratio
1,CCAGTAACGT,0.993
2,TCAATAAAAC,0.983
3,TACTAGAAAG,1.06
4,AGACATCTGG,1.01
5,CCCTATACGT,1.31
6,GTGGGCAATT,1.06
7,TTGAGGTTTT,1.01
8,GAAGCGTTCG,1
9,AACTAAACCA,1.05
10,TCTCGGGAAA,1.04
11,ATGTGAAACC,1.03
12,TTGTCCCGGC,0.976
13,GACATCGCAC,1.89
14,AAGGGAATCC,0.982
15,AAACAGTGTA,1.01
16,ATTTATAGTA,1
17,AGTAGGAGTT,0.956
18,TGAATTAAC,1.02
19,ACTCATGATC,1.11
20,TGCAATGG,2.78
21,GTGTCTCGA,1.02
22,TTTTCTGAGC,0.973
23,CCCAATTCGT,1.06
24,TCTTAAAGGC,1.05
25,AACCTGTGGT,0.968
26,GAGGATACCT,1.1

row,Sequence,switch fluorescence ratio
1,TTGCATTCGC,1
2,GCAGCCTGCC,1.14
3,CCCAGGGAAA,1.25
4,ACCATCGAAC,1.06
5,AACTCGGTG,0.99
6,CGATGACTCC,1.43
7,TGCAAAAGCA,1.08
8,CGGGGAATGA,0.957
9,GCTCGTA,0.957
10,AAGTAAAGGC,1.22
11,TACATTCGAC,1.03
12,GGGTCAGTT,1.01
13,GCACTGGAGA,1.03
14,CAGTTCCTA,0.993
15,CGAGTTATTT,0.986
16,AACAATTCT,1.05
17,ATTCGATCCA,0.997
18,TATCGCAATA,3.4
19,CTTCACTTTT,0.99
